Data: PubChem BioAssay AID2676 (National Center for Advancing Translational Sciences (NCATS), 2010)
Out of some 370,000 compounds screened, about 1,100 (0.3%) were called active. Inconclusive means that the source gave no clear call. Such entries were picked first, then a sample of the others. The call rests on the fitted dose curve; in most records, active means well fitted activation curve with a large enough effect; inconclusive means small, poorly fitted or top-dose-only effect; inactive means flat fitted curve, though single readings scatter. Potencies beside an inconclusive call are fits to weak or partial responses and may not hold up.

target: Relaxin receptor 1 (Homo sapiens) (UniProt Q9HBX9); test: qHTS Assay for Agonists of the Relaxin Receptor RXFP1; details: HEK293T-RXFP1 cAMP TR-FRET, 30 min; series mostly up to 57.5 µM; further: nearly all actives have a fitted effect of over 60% in size
UniProt Q9HBX9, sequence (Q9HBX9 whole entry, looked up): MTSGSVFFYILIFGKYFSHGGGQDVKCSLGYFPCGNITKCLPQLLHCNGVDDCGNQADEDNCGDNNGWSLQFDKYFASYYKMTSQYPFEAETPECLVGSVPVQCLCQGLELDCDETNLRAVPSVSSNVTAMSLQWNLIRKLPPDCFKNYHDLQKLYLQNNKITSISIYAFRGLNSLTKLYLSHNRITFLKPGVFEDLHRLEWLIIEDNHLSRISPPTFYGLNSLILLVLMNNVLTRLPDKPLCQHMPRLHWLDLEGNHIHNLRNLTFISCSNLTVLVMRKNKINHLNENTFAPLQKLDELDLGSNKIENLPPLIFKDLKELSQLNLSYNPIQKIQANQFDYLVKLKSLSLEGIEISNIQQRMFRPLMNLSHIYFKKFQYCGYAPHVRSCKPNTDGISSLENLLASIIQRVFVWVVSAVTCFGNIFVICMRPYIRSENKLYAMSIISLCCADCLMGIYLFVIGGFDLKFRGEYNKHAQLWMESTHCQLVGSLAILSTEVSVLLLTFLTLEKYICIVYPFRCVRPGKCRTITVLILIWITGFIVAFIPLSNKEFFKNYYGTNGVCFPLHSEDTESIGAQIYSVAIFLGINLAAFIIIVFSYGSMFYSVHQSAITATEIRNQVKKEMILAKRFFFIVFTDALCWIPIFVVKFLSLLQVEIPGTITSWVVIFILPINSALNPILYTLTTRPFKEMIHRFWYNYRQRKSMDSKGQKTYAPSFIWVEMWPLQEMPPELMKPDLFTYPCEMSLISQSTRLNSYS
Outline: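 Agonist response is measured as cAMP accumulation in an RXFP1-transfected HEK293T line under PDE4 inhibition. Values are scaled between buffer-only and 29 nM porcine relaxin, and EC50s come from standard Hill equation fits.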
Potency means the concentration at half of the fitted maximal effect; tags describe the fitted curve by direction and shape.

SMILES | Potency
CCn1cc2c(n1)-c1c(oc(C(=O)Nc3cccc(C)c3C)c1C)CC2 | inconclusive: 28.2 µM [activator, single point]
O=C(NC1CCCCCCC1)c1c(O)c2ccccc2[nH]c1=O | inconclusive: 39.8 µM [activator, single point]
O=C(NC1CCN(Cc2ccccc2)CC1)c1ccccc1OCc1ccccc1 | inactive
CCOC(=O)c1cc2c(=O)c3cc(C)ccc3oc2nc1C | inconclusive: 35.5 µM [activator, single point]
COc1cc(C2Nc3ccccc3C(=O)N2c2ccccc2)ccc1O (stereo not given) | inactive
CCCCNc1ncnc2sc3c(c12)CCN(CCC)C3 | inconclusive: 20 µM [activator, partial curve]
CC1CCCCN1C(=O)CSc1nc2c(c(=O)n(C)c(=O)n2C)n1C (stereo not given) | inconclusive: 28.2 µM [activator, partial curve]
O=C(Nc1ccc(F)cc1)c1ccc2c(c1)NC(=O)c1ccccc1S2 | inconclusive: 35.5 µM [activator, single point]
CCc1cccc(NC(=O)Cn2ccn3nc(-c4ccc(OC)c(OC)c4)cc3c2=O)c1 | inconclusive: 28.2 µM [activator, single point]
Cc1ccc2cc(C#N)c(SCC(=O)NCC3CCCO3)nc2c1 (stereo not given) | inconclusive: 31.6 µM [activator, single point]
Cc1cccc(CCNC(=O)CCCOc2cc(=O)n(C)c3ccccc23)c1 | inactive
O=C(Cn1cc(S(=O)(=O)c2ccccc2)c(=O)c2cc3c(cc21)OCO3)Nc1ccccc1 | inconclusive: 39.8 µM [activator, single point]
O=C(Cn1nnc(-c2ccccc2NC(=O)c2ccccc2F)n1)NC1CCCC1 | inconclusive: 31.6 µM [activator, single point]
Cc1cc(=O)c2cc(C(=O)Nc3cccc(C)c3C)ccc2[nH]1 | inconclusive: 39.8 µM [activator, single point]
COc1ccc(-c2nc3cc(NC(=O)COc4ccc(C)c(C)c4)ccc3o2)cc1 | inconclusive: 10 µM [activator, partial curve]
O=C(N/N=C/c1ccc([N+](=O)[O-])o1)c1cc2ccccc2o1 | inactive
Cc1cc(NC(=O)CSc2nc3cc(Cl)ccc3c(=O)n2CC(C)C)no1 | inconclusive: 31.6 µM [activator, single point]
CCCNC(=O)Cn1nc(-c2ccc(C)c(C)c2)c2cnc3ccc(OC)cc3c21 | inconclusive: 31.6 µM [activator, single point]
COc1ccc(NC(=O)Cn2c(=O)n(Cc3ccco3)c(=O)c3sc4ccccc4c32)c(OC)c1 | inconclusive: 39.8 µM [activator, single point]
O=C(Cn1nnc(-c2ccccc2NC(=O)c2ccco2)n1)NC1CCCCC1 | inconclusive: 39.8 µM [activator, single point]

SMILES | Potency
Cc1ccc(NC(=O)c2cc(N3C(=O)C=CC3=O)ccc2N2CCOCC2)cc1Cl | inactive
Cc1ccc(-n2nc(C)c3c(C)cc(=O)n(CC(=O)Nc4cc(Cl)ccc4C)c32)cc1 | inconclusive: 35.5 µM [activator, single point]
Nc1c(C(=O)Nc2ccc(C(F)(F)F)cc2)sc2nc(-c3cccs3)ccc12 | inconclusive: 15.8 µM [activator, partial curve]
CCC(NC(C)C)C(O)c1ccc(O)c(O)c1 (stereo not given) | inconclusive: 3.16 µM [activator, partial curve]
COC(=O)c1c(NC(C)=O)sc(C(=O)Nc2ccccc2F)c1C | inconclusive: 39.8 µM [activator, single point]
CCOc1ccc(NC(=O)Cn2cc(C(=O)c3ccc(F)cc3)c(=O)c3cc4c(cc32)OCCO4)cc1 | inconclusive: 15.8 µM [activator, partial curve]
Cc1cc(C)cc(C(=O)Nc2c(C(=O)Nc3ccccc3F)oc3ccccc23)c1 | inconclusive: 35.5 µM [activator, single point]
CCOc1ccc(C(CC(=O)O)NC(=O)c2sc3ccccc3c2Cl)cc1 (stereo not given) | inconclusive: 17.8 µM [activator, partial curve]
COc1ccc(NC(=O)CSc2nc(N)c(C#N)cc2C#N)cc1 | inconclusive: 39.8 µM [activator, single point]
CCCc1c(C)[nH]c2ccc(C(=O)O)cc2c1=S | inconclusive: 11.2 µM [activator, partial curve]
COCCCn1c(=O)/c(=C\c2ccc(OC(F)F)c(OC)c2)s/c1=C(/C#N)C(=O)NCCOC | inconclusive: 39.8 µM [activator, single point]
Cn1c(SCc2cccc(F)c2)nc2c([nH]c3ccccc32)c1=O | inconclusive: 31.6 µM [activator, single point]
CCC(C)NC(=O)CCC(=O)Nc1ccc2nc(N3CC(C)CC(C)C3)cc(C)c2c1 (stereo not given) | inconclusive: 39.8 µM [activator, single point]
CCOC(=O)CC(=O)CSc1ncnc2c1oc1ccccc12 | active: 0.794 µM
Cc1cc(OCC(C)C)ccc1/C(O)=C1/C(=O)C(=O)N(Cc2cccnc2)C1c1ccncc1 (stereo not given) | inconclusive: 20 µM [activator, partial curve]
Cc1nc(N2CCC(C)CC2)c2c(C)c(C(=O)Nc3ccc(C)c(F)c3)sc2n1 | inconclusive: 31.6 µM [activator, single point]
COc1cc2c(cc1OC)C(COc1ccc(F)cc1)N(C(=O)c1ccccc1F)CC2 (stereo not given) | inconclusive: 39.8 µM [activator, single point]
O=C(NCCCSc1ccccc1)c1cc(Br)ccc1O | inconclusive: 25.1 µM [activator, partial curve]
O=C(CSc1ncnc2c1oc1ccccc12)NCc1ccc(F)cc1 | inconclusive: 35.5 µM [activator, single point]
CN(C)c1ccc(-c2nnc(-c3ccccc3F)o2)cc1 | inconclusive: 28.2 µM [activator, partial curve]
